Source: PubChem BioAssay AID1347428 (National Center for Advancing Translational Sciences (NCATS), 2020)
About 290 (0.32%) of roughly 91,000 compounds were called active. The inconclusive results got no clear call from the source; some entries with a clear call stand among them for comparison. Calls come from the whole dose curve; as a rule, active = well fitted inhibition curve with a large enough effect; inconclusive = small, poorly fitted or top-dose-only effect; inactive = no such curve, though single readings can be large or run the other way. A potency beside an inconclusive call is a rough fit, not a confirmed value.

Molecular target: Single-stranded DNA cytosine deaminase (Homo sapiens) (UniProt Q9GZX7)
Chain of UniProt Q9GZX7 (Q9GZX7 whole entry, looked up): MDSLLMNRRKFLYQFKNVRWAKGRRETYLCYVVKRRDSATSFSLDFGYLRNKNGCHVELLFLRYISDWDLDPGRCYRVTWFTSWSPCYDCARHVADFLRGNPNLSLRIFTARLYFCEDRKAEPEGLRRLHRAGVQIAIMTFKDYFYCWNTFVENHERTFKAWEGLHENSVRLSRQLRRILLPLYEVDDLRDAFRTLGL
Test: Primary qHTS assay for inhibitors of Activation Induced Cytidine Deaminase (AID): AID signal; note: nearly all actives have a fitted effect of over 25% in size
Details: AID deamination FRET fluorescence, UDG-coupled, 4 h; activity change, negative = inhibition: at 115 µM (top of the series)
% is set by controls: 0 for no effect and ±100 for the full control effect; potency is the fitted concentration of half-maximal effect; tags give direction and shape of the fitted curve.

Row | SMILES | activity change, negative = inhibition | Potency
1 | COc1ccc(CC(=O)N2CC(=O)Nc3ccc(Br)cc3C2c2ccc(F)cc2)cc1OC (stereo not given) | inactive: -20.9% | 
2 | CN(C)c1ccc(-c2nc(-c3ccncc3)no2)cc1[N+](=O)[O-] |  | inconclusive: 70.8 µM [inhibitor, partial curve, poor fit]
3 | Cc1cc(=O)oc2cc(OCc3ccc(C(=O)OC(C)C(=O)NC(N)=O)cc3)ccc12 (stereo not given) |  | inconclusive: 39.8 µM [inhibitor, partial curve, poor fit]
4 | COc1cccc(Nc2cc(-c3ccccc3)nc(C)n2)c1 |  | inconclusive: 79.4 µM [inhibitor, partial curve, poor fit]
5 | CCOCCCNC(=O)CCC(=O)NNc1nc2ccccc2c2nc(-c3ccccc3)nn12 |  | inconclusive: 44.7 µM [inhibitor, partial curve]
6 | O=C(NCc1cccc(Br)c1)C1CCN(C(=O)c2sccc2-n2cccc2)CC1 |  | inconclusive: 56.2 µM [inhibitor, partial curve, poor fit]
7 | CCN(c1ncnc2c1cnn2-c1cc(Cl)ccc1C)C1CCCCC1 |  | inconclusive: 15.8 µM [inhibitor, partial curve, poor fit]
8 | Cc1ccc(C)c(CN2C(=O)c3ccccc3S(=O)(=O)c3ccc(C(=O)N4CCCC4)cc32)c1 |  | inconclusive: 35.5 µM [inhibitor, partial curve, poor fit]
9 | O=c1cc2nc(-c3cccs3)nc(SCCOc3ccc(Cl)cc3)n2[nH]1 |  | inconclusive: 25.1 µM [inhibitor, full curve, poor fit]
10 | O=C(CN1CCC2(CC1)OCCO2)Nc1cccc(F)c1 | inactive: -3.19% | 
11 | CC(=O)c1cccc(NC(=O)CSc2nnc3ccc(-c4ccc(C)cc4)nn23)c1 |  | inconclusive: 44.7 µM [inhibitor, partial curve, poor fit]
12 | CCCOc1ccc(C(=O)N(Cc2cccs2)c2ccc(C)cc2)cc1 |  | inconclusive: 56.2 µM [inhibitor, partial curve, poor fit]
13 | COc1ccc(-c2c3c(nc4sc(C(=O)Nc5ccc(F)cc5)c(N)c24)CC(C)(C)CC3=O)cc1 |  | inconclusive: 100 µM [inhibitor, single point]
14 | Cn1c(-c2ccccc2)c(C(=O)CSc2ncc(C(F)(F)F)cc2Cl)c2ccccc21 | inactive: -7.62% | 
15 | COc1ccccc1N1CCN(C(=O)c2cnn(-c3ccc(C)c(C)c3)c2C2CCN(C(=O)OC(C)(C)C)CC2)CC1 |  | inconclusive: 14.1 µM [inhibitor, full curve, poor fit]
16 | CCCn1c(SCc2ccccc2Cl)nc2c1c(=O)[nH]c(=O)n2C |  | inconclusive: 56.2 µM [inhibitor, partial curve, poor fit]
17 | Cc1nc2ccc(Cl)c([N+](=O)[O-])c2nc1C | inactive: -4.16% | 
18 | Clc1ccccc1-c1csc(-c2ccccc2)n1 |  | inconclusive: 89.1 µM [inhibitor, partial curve, poor fit]
19 | CC(C)(C)c1ccc(C(=O)NCC(c2cccs2)S(=O)(=O)c2ccc(F)cc2)cc1 (stereo not given) | inactive: -21.5% | 
20 | Cc1nn(C)c2c(=O)n(CC(=O)NCc3ccccc3)ccc12 | inactive: -12.6% | 

Row | SMILES | activity change, negative = inhibition | Potency
21 | COc1ccc(CNC(=O)C23CC4CC(CC(C4)C2)C3)cc1 | inactive: 1.21% | 
22 | COc1ccccc1CNC(=O)COc1cc(=O)n(C)c2ccccc12 |  | inconclusive: 31.6 µM [inhibitor, full curve, poor fit]
23 | COc1ccc(-c2noc(N3CCN(c4cccc(Cl)c4)CC3)n2)cc1OC |  | inconclusive: 25.1 µM [inhibitor, single point]
24 | CCSc1oc(-c2ccc(F)cc2)nc1S(=O)(=O)c1ccc(C)cc1 |  | inconclusive: 15.8 µM [inhibitor, partial curve, poor fit]
25 | COc1ccccc1Cn1cc(C(=O)c2ccc(Cl)cc2)c(=O)c2cc3c(cc21)OCCO3 |  | inconclusive: 15.8 µM [inhibitor, full curve]
26 | Cc1cc(S(=O)(=O)C(CNC(=O)COc2ccccc2)c2cccs2)ccc1F (stereo not given) | inactive: 4.81% | 
27 | Cc1ccc(CN2CCC(CNC(=O)c3cc4ccc5cccnc5c4[nH]3)CC2)cc1 |  | inconclusive: 44.7 µM [inhibitor, partial curve, poor fit]
28 | Cc1nc2nc(SCc3c(F)cccc3Cl)nn2c(C)c1Cc1ccccc1 |  | inconclusive: 63.1 µM [inhibitor, partial curve, poor fit]
29 | CCCN1C(=O)c2[nH]nc(-c3ccccc3O)c2C1c1cccc(OCc2ccccc2)c1 (stereo not given) |  | inconclusive: 39.8 µM [inhibitor, full curve]
30 | Cc1ccccc1-c1nnc(CN2CCN(c3cccc(C)c3C)CC2)o1 |  | inconclusive: 56.2 µM [inhibitor, partial curve, poor fit]
31 | COc1cc(OC)c(NC(=O)C(CC(C)C)N2Cc3ccccc3C2=O)cc1Cl (stereo not given) |  | inconclusive: 20 µM [inhibitor, full curve, poor fit]
32 | Cc1cccc(N2CCN(C(=O)c3cc4ccc5cccnc5c4[nH]3)CC2)c1C |  | inconclusive: 50.1 µM [inhibitor, partial curve]
33 | Cc1c(C(=O)Nc2cccc(C(F)(F)F)c2)sc2nc3n(c(=O)c12)CCC3 |  | inconclusive: 50.1 µM [inhibitor, partial curve, poor fit]
34 | CCCN(CCC)CCNC(=O)c1cc2c(=O)oc3ccc(C)cc3c2s1 |  | inconclusive: 56.2 µM [inhibitor, partial curve, poor fit]
35 | Cc1ccc(C)c(N2CCN(C3(c4ccccc4)C(=O)c4ccccc4C3=O)CC2)c1 |  | inconclusive: 56.2 µM [inhibitor, partial curve, poor fit]
36 | CCCCCCSc1nc(N)c2c3c(sc2n1)CCCC3C (stereo not given) |  | inconclusive: 39.8 µM [inhibitor, partial curve]
37 | COc1ccc(C)cc1NC(=O)Cn1c(=O)oc2cc(S(=O)(=O)N3CCCCCC3)ccc21 | inactive: 3.91% | 
38 | Nc1nccnc1C(=O)NCc1ccncc1 | inactive: -2.16% | 
39 | CCCCN(C)c1ccc(-c2n[nH]c(=O)c3ccccc23)cc1[N+](=O)[O-] | inactive: -11% | 
40 | CCCN(c1ccccc1F)S(=O)(=O)c1cc(-c2cc(C)no2)ccc1C |  | inconclusive: 35.5 µM [inhibitor, full curve, poor fit]
